# The supplement of paper PMC11417369
# ± gives the standard deviation of the averaged measurements. The list shows a part of the results.
# Test system: PfAP2-EXP AP2 domain (GST-tagged)
# Test: gcPBM binding intensity (ln(normalized median fluorescence intensity)); higher = stronger DNA binding
# How it was run: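 After 1 h on an Agilent 4 × 180k array of primer-extended double-stranded 36-bp intergenic genomic probes and negative controls, bound GST-tagged P. falciparum DNA-binding domains were detected with Alexa488 anti-GST antibody and scanned at 488 nm. The domains had been expressed in E. coli, and binding took place in 1× PBS with 1% milk, 0.2 mg/ml BSA, 0.5% salmon testes DNA and 0.03% Triton X-100. Binding intensity is the highest Masliner-normalised natural-log median intensity across replicate spots of either probe orientation.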
row,Sequence,gcPBM binding intensity (ln)
1,GTAACATACACATATACACACACACCGATATACATA [CACACA_site8278],8.7 ± 0.35
2,AATATAGTTCAATATACACACCCCTTTATTCATTTT [CACACA_site3625],8.72 ± 0.54
3,ATTAATTAAGGCACATGTACAAAATATTTTTTATAA [XGTACX_site1964],8.85 ± 0.69
4,TATACAATCTATATAACACACATATTTATATAAAAT [CACACA_site1797],8.51 ± 0.47
5,CACCAATTCCTATGCACACACATCTGCATATTATAT [CACACA_site5049],8.96 ± 0.32
6,TTATTTACATCAAGTACATGCAGTAAAAAAAAAAAA [TGCATGCA_site351],9.03 ± 0.3
7,ACAAAACGAACATACGCATGTGTGTACATTAATATA [TGCATGCA_site922],8.77 ± 0.37
8,ATGAACAGTTCATGTTGTACAATCTCCATTTTTTAC [XGTACX_site3933],8.98 ± 0.45
9,ATATAATATATGTATACACACATATTATATAATATT [CACACA_site3699],8.34 ± 0.32
10,CAATATAAAAAACACACACACAAACATATATTTATA [CACACA_site3703],8.59 ± 0.66
11,TATTTATATAAAAATACACACATGAATGGATATATA [CACACA_site6335],8.34 ± 0.41
12,TGTCGGCTTAGATTAGTGCACTGAAAAATGAAGTAT [GTGCAC_site9919],9.195 ± 0.064
13,ATATTATATATATAGGTGCGAGTATTTTATAAATAT [GTGCAC_site9889],8.55 ± 0.31
14,TATACACCCGGACACACACACATATATATATATATA [CACACA_site5030],10.1 ± 0.54
15,TAAGTATACACATACACACACACACTAATAAAAAAA [CACACA_site8035],8.65 ± 0.64
16,TGATATATTTATATTACACACTTAAACGAAAAAAAA [CACACA_site3021],8.52 ± 0.44
17,TATTATAATATTTATACACACATAATTTTGATAAAT [CACACA_site583],8.26 ± 0.3
18,AAATATAAAATTTATTGTACATTATATATAATATAT [XGTACX_site1416],8.32 ± 0.32
19,TAAAAATATTAATAAACACACAATGAGATATTGAAT [CACACA_site3153],8.43 ± 0.51
20,ATATATATATTATATGCACACGTTAAAATTTCATAT [CACACA_site4552],9.28 ± 0.12
21,CATTCTTGTTTAAAAAGTACATAAACATATATATAT [XGTACX_site1751],9.66 ± 0.13
22,TAAATTAATATGTATCGTACAATATATAAAACGATG [XGTACX_site2818],8.53 ± 0.37
23,AAAAAAAATAAAGAGAAAAAAAAAAGAAAATTATAT [GTGCAC_negctrl_site550],8.62 ± 0.49

row,Sequence,gcPBM binding intensity (ln)
1,TTCTTCTGTTTTATTACACACCATTTTGCGTATACA [CACACA_site2070],9.19 ± 0.47
2,ACATATTATATAACTCGTACTCGTAAAATATGTTGT [XGTACX_site2240],8.66 ± 0.39
3,GTTCTTTTATATATTTGTACATATTTATATATATTG [XGTACX_site4078],9.06 ± 0.35
4,GTCATAAATGTACGCACACATACATAAACATATACA [CACACA_site650],8.82 ± 0.13
5,TTTGAACTCTTAAGTGGTACAAATTTGTATTTTCTC [XGTACX_site2322],8.75 ± 0.42
6,GAAATGTGGTAATATACACACACGCATATATTTATA [CACACA_site6285],8.49 ± 0.38
7,ACATAGCAATGTTTCACACACAAGAAAAAATACAAT [CACACA_site2379],8.96 ± 0.42
8,TATAAATAAAAATATACACACTGTATTATTGTAATA [CACACA_site7721],8.2 ± 0.34
9,AATGGAATATATATTTGTACATAAATATTATAATAA [XGTACX_site8524],8.56 ± 0.28
10,ACATGTTAACTAAATGTACACACCTATGTTGATGTA [CACACA_site1821],8.56 ± 0.42
11,TTTACTCCTACAACATGTACATAAAATAAATTTTTT [XGTACX_site5010],8.83 ± 0.3
12,TTATTTACAACTTTTTTTTTTTTATTTTATTTTATT [CACACA_negctrl_site341],8.41 ± 0.47
13,AATATAAGTAGTACAGTGCATATAATAATTAGAAGA [GTGCAC_site9485],9.125 ± 0.021
14,GATTAAACACAAAGAAGTACGGACATAAAAAAAAAA [XGTACX_site3686],8.82 ± 0.59
15,TTGATTTATATTTAATGTACATTTTTACAGAAAATT [XGTACX_site2747],8.48 ± 0.38
16,CCATAAAAAGGATACACACACACACGCACATATATA [CACACA_site6550],8.73 ± 0.5
17,TCGTGGTTTTAATAAGTGCGCAATTTAAATATTTTT,8.84 ± 0.27
18,TATTATTATTATTACACACACAATTATATTTACCCC [CACACA_site503],9.12 ± 0.52
19,GTATATATATATATATATATATATTTTTATTTATTT [CACACA_negctrl_site589],8.65 ± 0.18
20,ATATATGTAACATATTGTACATATATGTATGTATGT [XGTACX_site3281],8.84 ± 0.16
21,ATGATAAAATTATGTAGTACATATTTGAATGTAAAT [XGTACX_site688],8.45 ± 0.35
22,TAATCGGTAATATTAACACACACATTTATATATATT [CACACA_site8274],8.57 ± 0.47
23,AATATCTGTATATCCACACACATATATATATATATA [CACACA_site4987],10 ± 0.46

row,Sequence,gcPBM binding intensity (ln)
1,TAATTTCTTATGTAGTGTACAAATAATATATGATAT [XGTACX_site597],8.51 ± 0.28
2,AATATCACCACATTGTTACTATAATATATAAAAAAG [XGTACX_negctrl_site384],8.39 ± 0.38
3,AAAAGGAGAAATATTGCACACGTGCAAAATGGTATG [CACACA_site4300],9.095 ± 0.064
4,ATTATTCATATAACACGTACAAAACGAAAAACAAAT [XGTACX_site3873],9.1 ± 0.54
5,GTATTAATAAAAATACGTACTTATTATTTATAATAA [XGTACX_site7672],8.225 ± 0.035
6,ATTCATAAAAGTTGTACATGCAATTTTTTTTTTTTT [TGCATGCA_site270],8.89 ± 0.26
7,ATTTTGTTATGAAACACACACATATATATATATATA [CACACA_site3650],10.2 ± 0.18
8,TATATGCCTATAAGAAGTACTGTGTAATGTAATATA [XGTACX_site8089],8.69 ± 0.49
9,TAAACATAAATATGCACACATATACATATATTCATA [CACACA_site2667],8.48 ± 0.014
10,AAGAAAAATATATTTATATATATATATATTAAATAT [TGCATGCA_negctrl_site500],8.21 ± 0.23
11,AATTTTATACGATAAACATGCAAATAAATAAATAAA [TGCATGCA_site227],8.95 ± 0.31
12,ACAGCCAATACGGAAACACACAAGTTATTTTATCAT [CACACA_site5507],8.56 ± 0.64
13,TATAATAATATTTATTGTACAATTAGTTTAATTCAT [XGTACX_site272],8.38 ± 0.33
14,TTTATTATATAAACATGTACACAATTTGGTATATTC [XGTACX_site3112],8.6 ± 0.32
15,AAAGAAAAAAAAAACACACACACACCCATTCAATAT [CACACA_site38],8.62 ± 0.52
16,AAATTATGCATCGAGGTGCGTCTTAAAATATAGTGG,8.76 ± 0.42
17,ATATAAATTCAAATTACACACATTTATTTTTTTTAC [CACACA_site53],8.37 ± 0.45
18,ACTAATAATTTGTCGGTGCATAAAATTATTTTTATT [GTGCAC_site9840],9.28 ± 0.64
19,CTACATAATAAAAAAAGTACATTCTAATAAATTGAC [XGTACX_site4504],8.65 ± 0.35
20,GAAAATCAGTTAAACACACACATAAAAAAAAAAAAA [CACACA_site2875],8.38 ± 0.84
21,ATCATATGTATGCATACACACAAAAAGTTATTTATA [CACACA_site6325],8.54 ± 0.32
22,CATATAAAAAAATAGACACACATTTTATATAATACG [CACACA_site1896],8.63 ± 0.32
23,TCAAGTATTAAAATGGGTACATAAATATGTGTATAT [XGTACX_site5884],8.65 ± 0.25

row,Sequence,gcPBM binding intensity (ln)
1,CTTTTTAAATTAAAATGTACAGAAAAATATTATTAT [XGTACX_site8760],8.36 ± 0.18
2,TATTTTTCTTTTTTTTTTTTTTTTATATTATACGTG [XGTACX_negctrl_site363],8.31 ± 0.59
3,TGGATAATGAATGATGCACACTAAAAATATTCTACA [CACACA_site5912],8.4 ± 0.16
4,CGGCACGTGATATATACACACATATAGATATATACA [CACACA_site6408],8.67 ± 0.49
5,TATTTGTAAATCGATACACACATATATCTTAATATA [CACACA_site4273],8.27 ± 0.53
6,CTCAATATTATTACTACACACAAATTAATATTTTCC [CACACA_site55],8.51 ± 0.5
7,ATATATACTATATTTTAACACACAAAAAAAAAAAAT [CACACA_site8277],8.54 ± 0.55
8,CACCCACCCAGACACACACACACAAAAAAAAAAAGA [CACACA_site499],8.62 ± 0.45
9,TGTTAATTGAATGCAATCTGAATTTTTTTACATAAT [CACACA_negctrl_site1002],8.38 ± 0.3
10,CTTTTTTCAAGACACACACACAAGAAAATATAAATA [CACACA_site7455],8.76 ± 0.5
11,TTATTTTGTTTATTATGTACACAAAGACATAATAAT [XGTACX_site5648],8.51 ± 0.27
12,CACTTACATAATTATTGTACAGATATTATCAAATAA [XGTACX_site567],8.47 ± 0.26
13,ACTTATATTATAAATTGTACAAATATTATATTTGGT [XGTACX_site1424],8.64 ± 0.38
14,TTTTTTTTTTTTAAATGTACTTATCAACTTTTATAT [XGTACX_site4641],8.42 ± 0.42
15,ACGGACAATACGGAAACACACAAGTTATTTTATCAT [CACACA_site7310],8.59 ± 0.46
16,TACGTAAAAATAATACGTACATATATTTATAGAAAA [XGTACX_site4959],8.53 ± 0.23
17,AAAAAAAAAAGACACACACACACACGCATATACATA [CACACA_site7289],8.62 ± 0.69
18,AATATATGTAAATGGACACACACATATATATATATA [CACACA_site9220],10 ± 0.28
19,AATAAAATAATCCAAGTGCATATGTAAAAATACATT [GTGCAC_site9576],8.31 ± 0.33
20,ACATAATATATATATTAACACACATCCTTTTATGTA [CACACA_site8317],8.71 ± 0.28
